In patent US20050026235A1 (priority 2003, published 2005):

Biological target: PLC from Bacillus cereus (Bacillus cereus, UniProt P09598)

In the case of `S=C([S-])OC1CC2CC1C1CCCC21.[K+]` (centres unmarked) [inhibitor 90, tricyclodecan-9-yl-xanthogenate K], the “mode of inhibition (Dixon plot)” value (Dixon plot of FIG. 13 data (FIG. 14)) is reported as “partial inhibitor” and the IC50 (compound 60 fixed at 0.5 μM, visually approximated from initial rate vs inhibitor concentration (FIG. 13), 25° C.) is reported as roughly 20 µM.
